Measured values taken from the RNAGym collection of RNA variant scans (doi:10.7554/elife.90254).
The source gives no read counts; variants with many changes may rest on few reads.

B1: LINE1-mini (parent)
chain: GGCAGAGCUCAACACAGCGUGGCAAAGUGGCUGUGGCUAGACUGCC

Variants of: B1
Assay: self-cleavage, relative activity (ratio to wild type); higher = more cleavage; in vitro, sequencing; the parent is a self-cleaving ribozyme

Variant	self-cleavage
GGCAGAUCUAAACACAGCGUGGCAAUGUGGCCGUAGCUAGACUGCC [G7U C10A A26U U32C G35A]	0.01
GGCAGAGCUCAACCCAGCGAGGCAAAGUGGCUGUGGCUAGUCUGCC [A14C U20A A41U]	0.04
GGCAGAGAUCAACACAGCCUGGCGAAGUGGCUGUGUCUAGACUGCC [C8A G19C A24G G36U]	0.27
GGCAGAGUUCAACAAAGCGUAGCAAAGUGGCUGUGGCUAGACUGCC [C8U C15A G21A]	0.22
GGCAGAGCUCAACACAGCGUGGGAAAGAGGCAGUGGCUAGAUUGCC [C23G U28A U32A C42U]	0.05
GGCAGAGCUCAACACAGCGUGGUAAAGUGGCUGUGACUACAAAGCC [C23U G36A G40C C42A U43A]	0.09
GGCGGAGCUCAACAUAGCGUGGCAAAGUGGCUGUGGCUAGACUGUC [A4G C15U C45U]	0.2
GGCAGAGCUCAACACAGCGUGGCAGCGUGGCUGUGGCCAGACUGCC [A25G A26C U38C]	0.07
GGCAGAUCUCAACACAGCGUGGCACAGUGGCUGUGGGUAGACUGCC [G7U A25C C37G]	0
GACAGAGCUCAACACAGCGUGGCAAAGUGUGUGUGGCUAGAAUGCC [G2A G30U C31G C42A]	0.12
GGCAGAUCUCAACACAGCUUAGCAAUGUGGCUGUGGCUGGACUGCC [G7U G19U G21A A26U A39G]	0.03
GGCAGAGCUCAAUACAGCGUGUCAAACUGGCUGUGGCUAGACUGCC [C13U G22U G27C]	0.14
GGUAGAGCUCAACACUGCGAGGCAAAGUGGCUAUGGAUAGACUGCC [C3U A16U U20A G33A C37A]	0.03
GGCCGAGCUCAACACAGCGUGGCAAAGUGGCUCUGGCUAGACUCCU [A4C G33C G44C C46U]	0.03
CGCAGAGCUCAACAUACCGUGGCAAAGUGGUUGUGUCUAGACUGCC [G1C C15U G17C C31U G36U]	0.02
GGCAGAGAUCAACACAGCGUGGCAAAGUGUCUGUGGCUAGACUCCC [C8A G30U G44C]	0.04
GGCAGAGCUCAACACAGAGUGGCAAAGUGGCUCUGGUUAGACUGCC [C18A G33C C37U]	0.02
AGCAGAGCUCAACACAGCACUGCAAAGUGGCUCUGGUUAGACUCCC [G1A G19A U20C G21U G33C C37U G44C]	0.01
GGCAGAACUCAACACAGCGUGGCAAAGUGGAUGUGGCUAUACUGCC [G7A C31A G40U]	0.09

Variant	self-cleavage
CGCAGAGCUCAACACACCGUGGCAAAGUGGCUGUGGCUAGAGUGCU [G1C G17C C42G C46U]	0.01
GGAAGAGCGUAACACAGCGUGGCCAAGUGGCUGUGGCUAGACUACC [C3A U9G C10U A24C G44A]	0.03
GGCUGAGCUCAACACAGCGUCGCAAAGUGGCUGUGGCUAGCCUGCC [A4U G21C A41C]	0.09
GGCAGAGUACAACUCAGCGUGGCAAAGUGGCUGUGGGUAUACUGCC [C8U U9A A14U C37G G40U]	0.01
GGCACAGCUAAACACAGCAUGGCAAAGUGGCUGUGGCUAGACUGCG [G5C C10A G19A C46G]	0.01
GGCAGAGCCCAACACAACGUGGCAAAGUGGCUGUGGCUAGACUGCG [U9C G17A C46G]	0.01
GGCAGUGCUCAUCACAGCGUGGCAAAGUGGCUGUGGGUAGACUCAC [A6U A12U C37G G44C C45A]	0.03
GGCAGAGCUCAACACAUCGUGGCAAAGUGGCUGCGGUUAGACUGCC [G17U U34C C37U]	0.07
GUCAGAGCUCAACACAGCGUGGCGAAGUGCCCGUGGUUAGACUGCC [G2U A24G G30C U32C C37U]	0.01
GGUAGAGCUCAAUACAGCGUGGCAAAGUGGCUGUGGCUAGACUCCC [C3U C13U G44C]	0.08
GGGAGAGCUCAACACAGCCUCGCAAAGUGGCUGUGGCUUGACUUCC [C3G G19C G21C A39U G44U]	0.03
GGCAAAACUCAACACAGCGUGGUAAAGUGGCUGUGGCUAGACUGCC [G5A G7A C23U]	0.26
GGCAGAGCCGAACACAGCCUGGUAAAGUGGCUGUGGCCAGACUGCC [U9C C10G G19C C23U U38C]	0.01
GGCAGAGCUCGACACAGCGUGGCAAAGUCGUUGUGGCUCGACUGCC [A11G G29C C31U A39C]	0.01
AGCAGAGCUCAACUCAGCGUGGCAAAGUGGGUGUGGCUGGACUGCC [G1A A14U C31G A39G]	0.24
GGUAGAGCUCAACACAGAGUGUCAAAGUCGCUGUUGCUAGACUGCC [C3U C18A G22U G29C G35U]	0.55
GGCAGAGCUCAACACAGCGUGGCAAAGUGGCUUCGGCUAGUCUGCC [G33U U34C A41U]	0.02
GGCAGAGUUCAAAAAAACGUGGCAAAAUGGCUGUGGCUAGACUGCC [C8U C13A C15A G17A G27A]	0.27
GCCAGAGCACAACACAGUGUGGCAAAGUUGAUGUGUCUAGAUUGCC [G2C U9A C18U G29U C31A G36U C42U]	0.07

Variant	self-cleavage
AACAGAGCUCAACACAGCGUGGCAAAGUGGCUGUGGCCAGUCUGCC [G1A G2A U38C A41U]	0.72
GGCAGAGCUCAACAAAGCCUGGCAAAGUGGCGGGGGCUAGACUGCC [C15A G19C U32G U34G]	0
GGCAGAGCUAAACACAGGGUGGCAAAGUGGCAUUGGCUAGACUGCC [C10A C18G U32A G33U]	0.01
GGCAGAGCUCAACAGAGCGUAGCAAAAUGGCUGUGGCUAGACUGCC [C15G G21A G27A]	0.03
GGCAUAGCUCAACACACCGUGGCAAAGUGGCUGUGGCUAGUCUGCC [G5U G17C A41U]	0.03
GGCAGAGCUCAACACAGCGUGGCAAAGUGGCUUUUGCUAGACGGCC [G33U G35U U43G]	0
GGCAGAGCUCAACACAGCGUGCCAAAAUGUCUGUGACUAGACUGCC [G22C G27A G30U G36A]	0.03
GGCAGAGCACAACACAGCGUGCCAAAGGGGCUGUGGCUAGACUGCC [U9A G22C U28G]	0.04
GGCAGAUCUCAACACAGCAUGGCAAAGUGGCUGUGGCAAGACUGCC [G7U G19A U38A]	0.14
GGCAGAGAUCAACACAGCGUGGCGUAGUCGCUGUGACUAGUCUGCC [C8A A24G A25U G29C G36A A41U]	0.11
GGAAGAGGUCAAGACAGCGUGGCAAAGUGGCUGUGUCUAGACUGCC [C3A C8G C13G G36U]	0.03
GGCAGCGCUCAACACAGAGUGGCAAAGUGGCGGUGGCUAGACAGCC [A6C C18A U32G U43A]	0.01
GGCAGAGCUCAACACAGCGUGGCAAAGAGUCUGUUGCAAGACUGCA [U28A G30U G35U U38A C46A]	0.05
GGCAAAGCUUAACACAGCGUGGCAAAUUGGCUGUGGCUAGACUGCC [G5A C10U G27U]	0.05
GGCAGAGCUCAACACAGGGUGGCAAAAUGGCUGUGGCUAGACUCCA [C18G G27A G44C C46A]	0.09
GGCAGAGCUCAACAAAGCGUGGUAAAGUGGCUGUGGCAAAACUGUC [C15A C23U U38A G40A C45U]	0.13
GGCAGAGCCCACCACAGCGUGGGAAAGUGUCUGUGGCUCGACUGCC [U9C A12C C23G G30U A39C]	0.01
GGAAUAGCUCAACACAGCGUGGAAAAGUGGCUAUGGCUAGACUGCC [C3A G5U C23A G33A]	0.17
